Experimental data reported in PubChem BioAssay AID686979 (National Center for Advancing Translational Sciences (NCATS), 2013).
About 50,000 (12%) of roughly 420,000 compounds were called active. The shares of active, inactive and inconclusive entries below differ from those in the screen. Calls follow the shape of the dose curve; as a rule, active = well fitted inhibition curve with a large enough effect; inconclusive = small, poorly fitted or top-dose-only effect; inactive = flat fitted curve, though single readings scatter. No potency is given beside an inconclusive call; the fits are too rough. More than one record can exist for a structure, and the calls need not agree.
% is scaled to controls: 0 for no effect and ±100 for the full control effect; potency is read from the fitted curve at half-maximal effect; tags tell the direction and shape of the fitted curve.

Experiment: qHTS for Inhibitors of human tyrosyl-DNA phosphodiesterase 1 (TDP1): qHTS in cells in presence of CPT; also: nearly all actives have a fitted effect of over 55% in size
Settings: chicken DT40 Tdp1-/-;hTDP1 cells + 20 nM CPT, ATP luminescence, 48 h; activity change, negative = growth inhibition: at 46.2 µM (top of the series) unless noted
Outline: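 Chicken DT40 Tdp1-/- cells stably complemented with human TDP1 were seeded at 400 cells/well in medium containing 20 nM camptothecin, exposed to pin-transferred compounds, and grown at 37 °C for at least 48 hr. Viability was read as ATP luminescence.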
In the case of `CCS(=O)(=O)c1nc(S(=O)(=O)c2ccc(Cl)cc2)c(NCc2ccccn2)s1`, the Potency is reported as “inactive”. For `C[C@H]1CN([C@@H](C)CO)C(=O)Cc2cc(NC(=O)CCN3CCOCC3)ccc2O[C@@H]1CN(C)Cc1ccc(Oc2ccccc2)cc1`, the Potency was active: 23.1 µM. In the case of `CCCCN(CC)Cc1ccc(CNC(=O)Nc2ccccc2)o1`, the Potency is reported as active: 17.8 µM. With `COc1ccc(/C=C2/SC(=S)N(n3c(C)ccc3C)C2=O)cc1` the Potency was inconclusive [inhibitor, single point]. For `O=C(CSc1nccn1Cc1ccccc1)NCc1ccccc1Cl`, the Potency was inconclusive [inhibitor, single point]. In the case of `CCCn1ccc2c(OCC(=O)NCc3ccccc3Cl)cccc2c1=O`, the Potency is reported as inconclusive [inhibitor, single point]. In the case of `CC(C)NC(=O)C1CCN(C2CCN(C(=O)c3scc4c3CCCC4)CC2)CC1`, the Potency is reported as inconclusive [inhibitor, single point]. In the case of `O=C(O)CCC(=O)N1N=C(c2cccs2)CC1c1cccc([N+](=O)[O-])c1` (configuration not stated), the Potency is reported as “inactive”. In the case of `c1coc(-c2nc3nc4ccccc4n3nc2-c2ccco2)c1`, the Potency is reported as inconclusive [inhibitor, single point]. For `COc1ccc(CNC(=O)c2ccc(-c3ccccc3)cc2)cc1OC`, the Potency was inconclusive [inhibitor, partial curve]. With `C[C@@H](CO)NC(=O)c1[nH]cnc1C(=O)Nc1ccc(CNC(=O)OC(C)(C)C)cc1` the Potency was active: 23.1 µM. For `O=C(CNC(=O)c1ccc2c(c1)OCCO2)N/N=C/c1ccc(O)cc1O`, the Potency was inconclusive [inhibitor, single point]. With `O=C(c1cc2c(=O)n3ccccc3nc2s1)N1CCN(c2cccc(Cl)c2)CC1` the Potency was inconclusive [inhibitor, single point]. With `CCOC(=O)C1CCCN(Cc2nc(N)nc(Nc3ccccc3)n2)C1` (configuration not stated) the Potency was inconclusive [inhibitor, single point]. For `CCS(=O)(=O)N1CCC(C(=O)N2CCN(c3ccccc3)CC2)CC1`, the Potency was “inactive”. In the case of `Cc1cc(C)nc(NS(=O)(=O)c2ccc(NC(=O)COc3ccc(C(C)(C)C)cc3)cc2)n1`, the Potency is reported as inconclusive [inhibitor, single point]. With `COC(=O)c1ccc(OC(=O)c2ccc(OC)c(OC)c2)c(OC)c1` the Potency was “inactive”. In the case of `COc1ccccc1-n1c(SCC(=O)N2CCc3ccccc32)nc2c(c1=O)SCC2`, the Potency is reported as active: 9.2 µM. In the case of `OCCN(CC(O)COc1ccccc1)CC(O)Cn1ccc2ccccc21` (configuration not stated), the Potency is reported as inconclusive [inhibitor, partial curve]. For `C[N+](C)(C)CCN(Cc1ccc(Cl)cc1)c1ccccn1`, the Potency was active: 18.4 µM. For `OCC1OC(n2ccc3c2ncn2ncnc32)C(O)C1O` (configuration not stated), the Potency was active: 0.366 µM. With `C/C=C(/C)C(=O)O[C@@H]1c2cc3c(c4c2[C@@]2(CO4)C(=O)C(OC)=C(OC)C=C2C[C@@H](C)[C@H]1C)OCO3` the Potency was inconclusive [inhibitor, single point]. With `COC(=O)c1[nH]c2cc(OC)c(OC)cc2c1NC(=O)Oc1ccccc1` the Potency was “inactive”. For `CC1(C)[C@@H]2CC[C@@]1(C)C(=O)C2`, the Potency was active: 8.41 µM. In the case of `NC(Cc1ccc(C(F)(F)F)cc1)c1csc(NC(=O)Nc2ccccc2)n1` (configuration not stated), the Potency is reported as active: 13 µM. For `Cc1cc(C(=O)N2CCCCCC2)cs1`, the Potency was inconclusive [inhibitor, partial curve]. With `Cc1cccc(C)c1Nc1c(-c2ccsc2)nc2ccc(Cl)cn12` the Potency was inconclusive [inhibitor, single point]. In the case of `Cc1ccc(CN(C(=O)c2csnn2)C(C(=O)NC2CCCC2)c2ccccn2)cc1` (configuration not stated), the Potency is reported as “inactive”. With `COc1ccc(-c2cc(C(F)(F)F)nc(SCC(=O)Nc3cc(C)on3)n2)cc1` the activity change, negative = growth inhibition was inconclusive: -32% [inhibitor]. In the case of `O=C(NC(=S)NCCCN1CCOCC1)c1ccc([N+](=O)[O-])cc1`, the Potency is reported as “inactive”. For `O=C(O)CC1S/C(=N/N=C/c2ccc(-c3ccc(Cl)c([N+](=O)[O-])c3)o2)NC1=O` (configuration not stated), the Potency was “inactive”. In the case of `O=c1c2ccccc2nnn1Cc1ccc(F)cc1`, the Potency is reported as inconclusive [inhibitor, single point]. In the case of `COCC(=O)N1CCCC(C(=O)c2ccc(C(F)(F)F)cc2)C1` (configuration not stated), the Potency is reported as “inactive”. For `CC(C)Cn1cc(NC(=O)N2CCN(c3ccccc3F)CC2)c2ccccc2c1=O`, the Potency was inconclusive [inhibitor, partial curve, poor fit]. In the case of `CCOC(=O)C1CCCCN1C(=O)c1oc2c(Cl)cc(C)cc2c1C` (configuration not stated), the Potency is reported as inconclusive [inhibitor, single point]. With `COc1ccc(N(C)S(=O)(=O)c2cccc(C(=O)N3CCN(c4ccccc4)CC3)c2)cc1` the Potency was inconclusive [inhibitor, single point]. In the case of `CC(C)[C@H](NC(=O)c1ccc(F)cc1)C(=O)NC1=NCCS1`, the Potency is reported as “inactive”. With `COc1ccc(N=C/C=C2\C=C(c3ccccc3)OC(C)(C)O2)cc1` the Potency was active: 16.4 µM. In the case of `CCCCNC(=O)C1(C)CCCCN1C(=O)c1c(Cl)cccc1Cl` (configuration not stated), the Potency is reported as inconclusive [inhibitor, single point]. In the case of `CCOc1ccc(N(CC(=O)NC2CCCCC2C)S(=O)(=O)c2c(C)noc2C)cc1` (configuration not stated), the Potency is reported as inconclusive [inhibitor, single point]. With `FC(F)(F)c1nnc2ccc(Sc3ccccn3)nn12` the Potency was “inactive”. For `COc1ccc(OC)c(CCNC(=O)c2cnn(-c3ccccc3)c2C2CCN(C(=O)OC(C)(C)C)CC2)c1`, the Potency was active: 13 µM. In the case of `O=C(OCn1nnc2ccccc2c1=O)c1cn(-c2ccccc2)nc1-c1cccnc1`, the Potency is reported as inconclusive [inhibitor, single point]. With `COc1cc(OC)cc(OC(=O)C2CCN(S(=O)(=O)c3ccc(OC)c(OC)c3)CC2)c1` the Potency was “inactive”. In the case of `CCOc1c(Cl)cc(CNC(C)(C)CC(C)(C)C)cc1OC`, the Potency is reported as inconclusive [inhibitor, single point]. With `Cc1ccc(C)c2[nH]c(=O)c(CCNC(=O)c3ccc(S(=O)(=O)N4CCOCC4)cc3)cc12` the Potency was inconclusive [inhibitor, single point]. With `Cc1cc(Cl)nc2ccc(Cc3ccc4nc(Cl)cc(C)c4c3)cc12` the Potency was inconclusive [inhibitor, single point]. With `Cc1cc(C)nc(SCC(=O)Nc2nc(-c3ccccc3)c(-c3ccccc3)o2)n1` the Potency was inconclusive [inhibitor, single point]. With `O=C1CCC[C@@H]2CC(N(Cc3cc4ccccc4s3)c3ccccc3)C[C@@H]3CCN1[C@H]23` (some centres not stated) the Potency was “inactive”. With `Nc1ccccc1C(=O)NCc1ccccc1` the Potency was inconclusive [inhibitor, single point]. For `COc1ccc(C(=O)N/N=C/c2ccc(OC)c(COc3ccc(F)cc3)c2)cc1`, the Potency was inconclusive [inhibitor, single point]. For `COC(=O)c1cc2oc3ccccc3c2n1Cc1cc(C)ccc1C`, the Potency was “inactive”. For `Cc1cc(Cl)ccc1NC(=S)N1CCC(C(N)=O)(N2CCCCC2)CC1`, the Potency was “inactive”. For `Cc1cc(NC(=O)C(C)C)ncc1NC(=O)c1ccccn1`, the Potency was inconclusive [inhibitor, single point]. For `Cc1ccc(S(=O)(=O)Cc2ccc(C(=O)NC3CCCCCC3)o2)cc1`, the Potency was inconclusive [inhibitor, single point]. With `O=c1c(N2CCN(c3cccc(C(F)(F)F)c3)CC2)csc2ccc(Cl)cc12` the Potency was inconclusive [inhibitor, single point]. In the case of `Cc1ccccc1CSc1nc2c(sc3ccccc32)c(=O)n1CCCOC(C)C`, the Potency is reported as inconclusive [inhibitor, single point]. For `CCOC(=O)c1ccc(NC(=S)N2CCCC2)cc1`, the Potency was “inactive”. For `CC1(C(=O)NCc2cccs2)Cc2c(-c3ccc4c(c3)OCO4)ccnc2O1` (configuration not stated), the Potency was active: 1.3 µM. With `O=C(O)CN1C(=O)C(=O)N(Cc2ccccc2F)C1=O` the Potency was “inactive”. In the case of `O=C1CC(c2ccccc2)Cc2[nH]c(=O)c(-c3nc(-c4ccc(Cl)cc4)cs3)cc21` (configuration not stated), the Potency is reported as active: 0.58 µM. With `CCN1CCN(C(c2cccc(F)c2)c2c(O)cc(C)n(Cc3ccco3)c2=O)CC1` (configuration not stated) the Potency was “inactive”. For `Cc1ccccc1NC(=O)Cc1nc(COC(=O)Cc2cccc(C(F)(F)F)c2)cs1`, the Potency was inconclusive [inhibitor, single point]. With `COC(=O)c1sc(S(=O)(=O)Nc2ccc(Br)cc2)c(C(=O)OC)c1C` the Potency was inconclusive [inhibitor, single point]. For `Nn1c(COc2ccccc2F)nnc1SCC(=O)NC1CCCC1`, the Potency was “inactive”. With `Cc1nnsc1C(=O)N/N=C/c1ccc2ccccc2c1O` the Potency was active: 1.03 µM. In the case of `O=C1CCC(C(=O)OCC(=O)c2ccccc2)N1` (configuration not stated), the Potency is reported as inconclusive [inhibitor, single point]. For `CCN(CC)CCNC(=O)Cc1nn(Cc2ccccc2)c(=O)c2ccccc12`, the Potency was “inactive”. With `Cc1nn(C)c2c1c(-c1ccccc1)cc(=O)n2C(C)C(=O)NCc1ccc(F)cc1` (configuration not stated) the Potency was inconclusive [inhibitor, single point]. For `Cc1cccc(C)c1NC(=O)C(c1ccncc1)n1c(=O)c(-c2ccco2)nc2ccccc21` (configuration not stated), the Potency was “inactive”. With `S=C(NCc1ccccc1Cl)NC1CCCC1` the Potency was inconclusive [inhibitor, single point]. With `CCOc1cc(/C=C2/C(=O)N(c3ccccc3)N=C2C)ccc1OC(=O)c1cccs1` the Potency was inconclusive [inhibitor, partial curve, poor fit].
